Results reported in the supplement of paper PMC4967469.
Lines with a small IC50 respond at low doses; where the fit passes the top or lowest dose, that dose stands as a limit. AUC is the area under the same curve over the 256-fold range up to the top dose, as a fraction; values near 1 show little effect. For part of these data: Any top dose called inferred was derived from the fitted curves, not read from the paper. For part of these data: Where an entry number is given, a second screen of the drug exists; the two often differ.

Legend:
Test in all cases: Viability of human cancer cell lines after 72 h of drug (GDSC screen)
PD-0332991 = compound: CC(=O)c1c(C)c2cnc(Nc3ccc(N4CCNCC4)cn3)nc2n(C2CCCC2)c1=O [PD-0332991]
Procedure: (§1)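 Human cancer cell lines in 384-well plates, medium with 10% serum, drug for 72 h over a 256-fold dose range (nine 2-fold or five 4-fold steps up to the top dose). Adherent lines were fixed and stained with the nucleic acid dye Syto60, suspension lines read with resazurin; signal relative to control wells, capped at 0 and 100%. One two-parameter sigmoid per drug and line, fitted in a mixed model over all curves with the slope shared within a line.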

AZD6244 = compound: Cn1cnc2c(F)c(Nc3ccc(Br)cc3Cl)c(C(=O)NOCCO)cc21 [AZD6244]; conditions: screen: GDSC drug entry 1062
Procedure: as §1

ZM-447439 = compound: COc1cc2c(Nc3ccc(NC(=O)c4ccccc4)cc3)ncnc2cc1OCCCN1CCOCC1 [ZM-447439]; conditions: top dose inferred
Procedure: as §1

Row | Cell Line | AUC (PD-0332991) | IC50 (PD-0332991) [µM] | AUC (AZD6244) | IC50 (AZD6244) [µM] | AUC (ZM-447439) | IC50 (ZM-447439) [µM]
1 | RCC-MF (kidney, adherent, top dose 4 µM) | 0.797 | 2.57 | 0.854 | > 4 | 0.971 | > 4
2 | RCH-ACV (B-cell leukaemia, suspension, top dose 4 µM) | 0.562 | 0.358 | 0.991 | > 4 | 0.726 | 0.953
3 | RCM-1 (large intestine, adherent, top dose 4 µM) | 0.918 | > 4 | 0.589 | 0.461 | 0.948 | > 4
4 | REH (B-cell leukaemia, suspension, top dose 4 µM) | 0.608 | 0.49 | 0.979 | > 4 | 0.841 | 2.61
5 | RERF-LC-MS (lung adenocarcinoma, adherent, top dose 4 µM) | 0.945 | > 4 | 0.943 | > 4 | 0.968 | > 4
6 | RERF-LC-Sq1 (lung squamous cell carcinoma, adherent, top dose 4 µM) | 0.786 | 2.69 | 0.893 | > 4 | 0.889 | > 4
7 | RF-48 (stomach, adherent, top dose 4 µM) | 0.929 | > 4 | 0.969 | > 4 | 0.976 | > 4
8 | RH-1 (rhabdomyosarcoma, adherent, top dose 4 µM) | 0.95 | > 4 | 0.992 | > 4 | 0.824 | 1.88
9 | RH-18 (rhabdomyosarcoma, adherent, top dose 4 µM) | 0.96 | > 4 | 0.94 | > 4 | 0.973 | > 4
10 | RKO (large intestine, adherent, top dose 4 µM) | 0.768 | 1.4 | 0.526 | 0.293 | 0.637 | 0.579
11 | RL (B-cell lymphoma, suspension, top dose 4 µM) | 0.913 | > 4 | 0.99 | > 4 | 0.989 | > 4
12 | RO82-W-1 (thyroid, adherent, top dose 4 µM) | 0.701 | 1.09 | 0.846 | > 4 | 0.867 | > 4
13 | ROS-50 (B-cell leukaemia, suspension, top dose 4 µM) | 0.936 | > 4 | 0.959 | > 4 | 0.981 | > 4
14 | RPMI-2650 (head and neck, adherent, top dose 4 µM) | 0.843 | 3.19 | 0.95 | > 4 | 0.954 | > 4
15 | RPMI-6666 (Hodgkin lymphoma, suspension, top dose 4 µM) | 0.954 | > 4 | 0.943 | > 4 | 0.938 | > 4
16 | RPMI-7951 (melanoma, adherent, top dose 4 µM) | 0.747 | 1.24 | 0.866 | 3.38 | 0.906 | > 4
17 | RPMI-8226 (myeloma, suspension, top dose 4 µM) | 0.674 | 0.709 | 0.971 | > 4 | 0.843 | 2.31
18 | RPMI-8402 (T-cell lymphoblastic leukaemia, suspension, top dose 4 µM) | 0.425 | 0.162 | 0.988 | > 4 | 0.691 | 0.773
19 | RPMI-8866 (chronic myeloid leukaemia, suspension, top dose 4 µM) | 0.685 | 0.79 | 0.925 | > 4 | 0.791 | 1.65
20 | RS4-11 (leukaemia, suspension, top dose 4 µM) | 0.562 | 0.364 | 0.989 | > 4 | 0.643 | 0.598
21 | RVH-421 (melanoma, adherent, top dose 4 µM) | 0.834 | > 4 | 0.502 | 0.254 | 0.949 | > 4

Row | Cell Line | AUC (PD-0332991) | IC50 (PD-0332991) [µM] | AUC (AZD6244) | IC50 (AZD6244) [µM] | AUC (ZM-447439) | IC50 (ZM-447439) [µM]
22 | RXF393 (kidney, adherent, top dose 4 µM) | 0.714 | 1.29 | 0.946 | > 4 | 0.856 | > 4
23 | Raji (Burkitt lymphoma, suspension, top dose 4 µM) | 0.988 | > 4 | 0.982 | > 4 | 0.99 | > 4
24 | Ramos-2G6-4C10 (Burkitt lymphoma, suspension, top dose 4 µM) | 0.846 | 2.3 | 0.967 | > 4 | 0.724 | 0.963
25 | SAS (head and neck, adherent, top dose 4 µM) | 0.736 | 1.28 | 0.967 | > 4 | 0.984 | > 4
26 | SAT (head and neck, adherent, top dose 4 µM) | 0.866 | > 4 | 0.761 | 2.23 | 0.789 | 2.97
27 | SBC-1 (small cell lung carcinoma, suspension, top dose 4 µM) | 0.989 | > 4 | 0.988 | > 4 | 0.879 | 3.84
28 | SBC-5 (small cell lung carcinoma, adherent, top dose 4 µM) | 0.99 | > 4 | 0.993 | > 4 | 0.942 | > 4
29 | SCC90 (head and neck, adherent, top dose 4 µM) | 0.981 | > 4 | 0.975 | > 4 | 0.966 | > 4
30 | SCC-9 (head and neck, adherent, top dose 4 µM) | 0.905 | > 4 | 0.916 | > 4 | 0.878 | > 4
31 | SCC-15 (head and neck, adherent, top dose 4 µM) | 0.862 | > 4 | 0.914 | > 4 | 0.82 | 3.42
32 | SCC-25 (head and neck, adherent, top dose 4 µM) | 0.913 | > 4 | 0.822 | 2.74 | 0.944 | > 4
33 | SCH (stomach, adherent, top dose 4 µM) | 0.981 | > 4 | 0.988 | > 4 | 0.987 | > 4
34 | SF126 (glioma, adherent, top dose 4 µM) | 0.92 | > 4 | 0.984 | > 4 | 0.946 | > 4
35 | SF268 (glioma, adherent, top dose 4 µM) | 0.677 | 0.812 | 0.984 | > 4 | 0.906 | > 4
36 | SF539 (glioma, adherent, top dose 4 µM) | 0.989 | > 4 | 0.923 | > 4 | 0.922 | > 4
37 | SH-4 (melanoma, adherent, top dose 4 µM) | 0.827 | > 4 | 0.491 | 0.234 | 0.942 | > 4
38 | SHP-77 (small cell lung carcinoma, semi-adherent, top dose 4 µM) | 0.853 | 2.63 | 0.969 | > 4 | 0.96 | > 4
39 | SIMA (neuroblastoma, adherent, top dose 4 µM) | 0.616 | 0.545 | 0.985 | > 4 | 0.947 | > 4
40 | SJRH30 (rhabdomyosarcoma, adherent, top dose 4 µM) | 0.908 | > 4 | 0.956 | > 4 | 0.923 | > 4
41 | SJSA-1 (bone, adherent, top dose 4 µM) | 0.715 | 1.11 | 0.797 | 2.17 | 0.943 | > 4
42 | SK-ES-1 (Ewing sarcoma, semi-adherent, top dose 4 µM) | 0.879 | > 4 | 0.926 | > 4 | 0.818 | 2.45

Row | Cell Line | AUC (PD-0332991) | IC50 (PD-0332991) [µM] | AUC (AZD6244) | IC50 (AZD6244) [µM] | AUC (ZM-447439) | IC50 (ZM-447439) [µM]
43 | SK-GT-2 (stomach, adherent, top dose 4 µM) | 0.921 | > 4 | 0.969 | > 4 | 0.831 | 2.73
44 | SK-GT-4 (oesophagus, adherent, top dose 4 µM) | 0.762 | 1.76 | 0.982 | > 4 | 0.944 | > 4
45 | SK-LMS-1 (soft tissue, adherent, top dose 4 µM) | 0.806 | 1.91 | 0.987 | > 4 | 0.922 | > 4
46 | SK-LU-1 (lung adenocarcinoma, adherent, top dose 4 µM) | 0.646 | 0.709 | 0.726 | 1.33 | 0.904 | > 4
47 | SK-MEL-1 (melanoma, suspension, top dose 4 µM) | 0.993 | > 4 | 0.991 | > 4 | 0.986 | > 4
48 | SK-MEL-3 (melanoma, adherent, top dose 4 µM) | 0.911 | > 4 | 0.662 | 0.762 | 0.981 | > 4
49 | SK-MEL-5 (melanoma, adherent, top dose 4 µM) | 0.845 | 3.92 | 0.95 | > 4 | 0.934 | > 4
50 | SK-MEL-31 (melanoma, adherent, top dose 4 µM) | 0.978 | > 4 | 0.985 | > 4 | 0.985 | > 4
51 | SK-MES-1 (lung squamous cell carcinoma, adherent, top dose 4 µM) | 0.764 | 1.58 | 0.866 | > 4 | 0.908 | > 4
52 | SK-MG-1 (glioma, adherent, top dose 4 µM) | 0.831 | 2.58 | 0.981 | > 4 | 0.913 | > 4
53 | SK-MM-2 (myeloma, suspension, top dose 4 µM) | 0.97 | > 4 | 0.987 | > 4 | 0.987 | > 4
54 | SK-N-AS (neuroblastoma, adherent, top dose 4 µM) | 0.805 | 2.39 | 0.98 | > 4 | 0.925 | > 4
55 | SK-N-FI (neuroblastoma, adherent, top dose 4 µM) | 0.898 | > 4 | 0.915 | > 4 | 0.99 | > 4
56 | SK-N-SH (neuroblastoma, adherent, top dose 4 µM) | 0.823 | 2.33 | 0.953 | > 4 | 0.916 | > 4
57 | SK-OV-3 (ovary, adherent, top dose 4 µM) | 0.85 | > 4 | 0.978 | > 4 | 0.953 | > 4
58 | SK-PN-DW (Ewing sarcoma, adherent, top dose 4 µM) | 0.919 | > 4 | 0.929 | > 4 | 0.82 | 2.41
59 | SKG-IIIa (cervix, adherent, top dose 4 µM) | 0.983 | > 4 | 0.982 | > 4 | 0.937 | > 4
60 | SKM-1 (haematopoietic neoplasm, suspension, top dose 4 µM) | 0.597 | 0.475 | 0.758 | 1.52 | 0.731 | 1.23
61 | SKN (uterus, adherent, top dose 4 µM) | 0.601 | 0.503 | 0.95 | > 4 | 0.821 | 2.97
62 | SLVL (B-cell lymphoma, suspension, top dose 4 µM) | 0.977 | > 4 | 0.979 | > 4 | 0.978 | > 4
63 | SNB75 (glioma, adherent, top dose 4 µM) | 0.978 | > 4 | 0.947 | > 4 | 0.957 | > 4
